Laboratory results from patent US8334239B2, “High affinity VEGF-receptor antagonists” (The Board of Regents of the University of Texas System, priority 2007, dated 2012).
At least one peptide structure holds a part that was inferred or is arguable (an end, a ring closure or a residue). At least one structure is not confirmed: it was looked up by name or label, or the drawing left a doubt. Positions of bridges follow the written chain, without caps; N, C: chain ends. Non-standard residues stand in square brackets, D forms with d. Residues, ends and D or L forms follow the SMILES beside them. Chains are numbered I, II in the order given. *: point of attachment. Fluorescein(5-Mal) = O=C1OC2(c3ccc(O)cc3Oc3cc(O)ccc32)c2ccc(N3C(=O)CC(*)C3=O)cc21; Gly(N(CH2)2(3-indolyl)) = O=C(O)CNCCc1c[nH]c2ccccc12; Gly(N-piperonyl) = O=C(O)CNCc1ccc2c(c1)OCO2; Nrpe = C[C@@H](NCC(=O)O)c1ccccc1; NFurfurylGly = O=C(O)CNCc1ccco1; Nleu = CC(C)CNCC(=O)O; Nlys = NCCCCNCC(=O)O; Ahx = NCCCCCC(=O)O; βAla = NCCC(=O)O

Each compound was assayed against VEGFR2 (Homo sapiens, UniProt P35968) (assay: ELISA-like binding assay, fluoresceinated peptoids on immobilized VEGFR2 extracellular domain). Settings: ELISA-like assay, immobilized VEGFR2 extracellular domain.
Chain of UniProt P35968 (P35968 20-764): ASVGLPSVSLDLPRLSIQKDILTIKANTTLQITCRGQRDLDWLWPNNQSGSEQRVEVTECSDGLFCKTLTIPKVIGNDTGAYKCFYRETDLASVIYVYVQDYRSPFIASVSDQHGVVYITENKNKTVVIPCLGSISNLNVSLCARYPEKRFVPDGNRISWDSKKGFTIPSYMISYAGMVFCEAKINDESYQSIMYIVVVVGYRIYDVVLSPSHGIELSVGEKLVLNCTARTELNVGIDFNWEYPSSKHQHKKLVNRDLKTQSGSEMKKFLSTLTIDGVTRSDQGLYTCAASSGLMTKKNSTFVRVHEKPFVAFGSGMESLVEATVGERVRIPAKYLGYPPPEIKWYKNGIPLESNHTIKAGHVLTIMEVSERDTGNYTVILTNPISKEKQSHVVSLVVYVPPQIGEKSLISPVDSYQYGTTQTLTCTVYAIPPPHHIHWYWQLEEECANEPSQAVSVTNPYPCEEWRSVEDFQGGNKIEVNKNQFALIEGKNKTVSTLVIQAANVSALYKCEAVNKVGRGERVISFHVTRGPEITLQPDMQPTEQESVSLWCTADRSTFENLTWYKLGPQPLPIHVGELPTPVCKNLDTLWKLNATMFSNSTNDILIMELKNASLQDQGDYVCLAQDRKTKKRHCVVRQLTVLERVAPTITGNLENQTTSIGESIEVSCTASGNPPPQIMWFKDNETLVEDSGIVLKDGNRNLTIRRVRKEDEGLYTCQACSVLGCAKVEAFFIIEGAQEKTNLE
Set-up: VEGFR2 extracellular domain (amino acids 1-764 fused to 6× histidine-tagged Fc of human IgG, via the peptide IEGRMD; R&D Systems); linker peptide IEGRMD (internal); Fc of human IgG (C); 6xHis (C); purchased R&D Systems
Method: ELISA based binding assay. White, clear bottom 96-well plates (Corning Inc.) were coated with of 1 μg/ml recombinant human VEGFR2 protein (R&D Systems) using the sensitizing buffer (0.621 g NaHCO3 & 0.275 g Na2CO3 dissolved on 100 ml of ddH2O, pH=9.5) overnight at 4° C. Washed with 3×200 μl of wash buffer 1×PBS with 0.05% Tween-20 and blocked with Startingblock blocking buffer (Pierce). Added 50 μl of serial dilutions of FITC labeled peptoids dissolved in Startingblock blocking buffer to each well & allowed to react for 1 h at room temperature. Washed with 5×200 μl of wash buffer 1×PBS with 0.05% Tween-20 and remaining fluorescence was measured at 520 nm using the plate reader.
The isolated peptoids are VEGFR2 ligands. Two of the ‘hits’ from this screen, GU40C and GU40E (see FIG. 2) were resynthesized, both as free compounds and with C-terminal Cys (for C-terminal fluorescein tagging via maleimide chemistry), cleaved from the beads and purified to apparent homogeneity by reverse phase HPLC. […] The association of these peptoids with VEGFR2 was evaluated using an ELISA-like assay. A commercially available fusion protein containing the VEGFR2 extracellular domain (amino acids 1-764 fused to 6× histidine-tagged Fc of human IgG, via the peptide IEGRMD; R&D Systems) was plated into 96-well plates and then mixed with various concentrations of […] Fluorescein (FITC)-labeled peptoid. After washing away unbound peptoid, the remaining fluorescence emission signal was measured at 520 nm. In this assay purified VEGFR2 protein was used instead of the whole PAE/KDR cells that over express VEGFR2, in order to confirm these compounds were binding only to the receptor.

**Q.** CC(C)CN(CC(=O)N(CCCCN)CC(=O)N(CC(=O)N(CC(=O)N(CCCCN)CC(=O)N(CC(=O)N(CCCCN)CC(=O)NCCCC[C@H](NC(=O)CN(CCCCN)C(=O)CN(CC(C)C)C(=O)CN(CCCCN)C(=O)CN(Cc1ccc2c(c1)OCO2)C(=O)CN(C(=O)CN(CCCCN)C(=O)CN(CC(C)C)C(=O)CNCCCCN)[C@H](C)c1ccccc1)C(=O)N[C@@H](CSC1CC(=O)N(c2ccc3c(c2)C(=O)OC32c3ccc(O)cc3Oc3cc(O)ccc32)C1=O)C(N)=O)CC(C)C)Cc1ccc2c(c1)OCO2)[C@H](C)c1ccccc1)C(=O)CNCCCCN (stereo partly shown) [GU40CA] (I: H-[Nlys][Nleu][Nlys][Nrpe][Gly(N-piperonyl)][Nlys][Nleu][Nlys]KC(Fluorescein(5-Mal))-NH2 / II: H-[Nlys][Nleu][Nlys][Nrpe][Gly(N-piperonyl)][Nlys][Nleu][Nlys]; amide I:9-II:C) was tested. Which Kd did it give?
**A.** 97.5 ± 22 nM

**Q.** With CC(C)CN(CC(=O)N(CCCCN)CC(=O)N(CCCCN)CC(=O)NCCCC[C@H](NC(=O)CN(CCCCN)C(=O)CN(CCCCN)C(=O)CN(CC(C)C)C(=O)CN(CCCCN)C(=O)CN(CC(C)C)C(=O)CN(CCCCN)C(=O)CN(Cc1ccco1)C(=O)CN(CCCCN)C(=O)CNCCc1c[nH]c2ccccc12)C(=O)N[C@@H](CSC1CC(=O)N(c2ccc3c(c2)C(=O)OC32c3ccc(O)cc3Oc3cc(O)ccc32)C1=O)C(N)=O)C(=O)CN(CCCCN)C(=O)CN(CC(C)C)C(=O)CN(CCCCN)C(=O)CN(Cc1ccco1)C(=O)CN(CCCCN)C(=O)CNCCc1c[nH]c2ccccc12 (stereo partly shown) [GU40E1] (I: H-[Gly(N(CH2)2(3-indolyl))][Nlys][NFurfurylGly][Nlys][Nleu][Nlys][Nleu][Nlys][Nlys]KC(Fluorescein(5-Mal))-NH2 / II: H-[Gly(N(CH2)2(3-indolyl))][Nlys][NFurfurylGly][Nlys][Nleu][Nlys][Nleu][Nlys][Nlys]; amide I:10-II:C) as the compound, how does the Kd read?
**A.** 194 ± 21 nM

**Q.** Which Kd does the source give for CC(C)CN(CC(=O)N(CCCCN)CC(=O)N(CCCCN)CC(=O)NCCCC[C@H](NC(=O)CCNC(=O)CN(CCCCN)C(=O)CN(CCCCN)C(=O)CN(CC(C)C)C(=O)CN(CCCCN)C(=O)CN(CC(C)C)C(=O)CN(CCCCN)C(=O)CN(Cc1ccco1)C(=O)CN(CCCCN)C(=O)CNCCc1c[nH]c2ccccc12)C(=O)N[C@@H](CSC1CC(=O)N(c2ccc3c(c2)C(=O)OC32c3ccc(O)cc3Oc3cc(O)ccc32)C1=O)C(N)=O)C(=O)CN(CCCCN)C(=O)CN(CC(C)C)C(=O)CN(CCCCN)C(=O)CN(Cc1ccco1)C(=O)CN(CCCCN)C(=O)CNCCc1c[nH]c2ccccc12 (stereo partly shown) [GU40E2] (I: H-[Gly(N(CH2)2(3-indolyl))][Nlys][NFurfurylGly][Nlys][Nleu][Nlys][Nleu][Nlys][Nlys][βAla]KC(Fluorescein(5-Mal))-NH2 / II: H-[Gly(N(CH2)2(3-indolyl))][Nlys][NFurfurylGly][Nlys][Nleu][Nlys][Nleu][Nlys][Nlys]; amide I:11-II:C; N-terminus assumed) here?
**A.** 591 ± 70 nM

**Q.** For CC(C)CN(CC(=O)N(CCCCN)CC(=O)N(CCCCN)CC(=O)NCCCCCC(=O)N[C@@H](CCCCNC(=O)CN(CCCCN)C(=O)CN(CCCCN)C(=O)CN(CC(C)C)C(=O)CN(CCCCN)C(=O)CN(CC(C)C)C(=O)CN(CCCCN)C(=O)CN(Cc1ccco1)C(=O)CN(CCCCN)C(=O)CNCCc1c[nH]c2ccccc12)C(=O)N[C@@H](CSC1CC(=O)N(c2ccc3c(c2)C(=O)OC32c3ccc(O)cc3Oc3cc(O)ccc32)C1=O)C(N)=O)C(=O)CN(CCCCN)C(=O)CN(CC(C)C)C(=O)CN(CCCCN)C(=O)CN(Cc1ccco1)C(=O)CN(CCCCN)C(=O)CNCCc1c[nH]c2ccccc12 (stereo partly shown) [GU40E3] (I: H-[Gly(N(CH2)2(3-indolyl))][Nlys][NFurfurylGly][Nlys][Nleu][Nlys][Nleu][Nlys][Nlys][Ahx]KC(Fluorescein(5-Mal))-NH2 / II: H-[Gly(N(CH2)2(3-indolyl))][Nlys][NFurfurylGly][Nlys][Nleu][Nlys][Nleu][Nlys][Nlys]; amide I:11-II:C), which Kd is on record?
**A.** 108 ± 9 nM
